These results are taken from the RNAGym collection of RNA variant scans (doi:10.7554/elife.90254).

First the molecules themselves.
B1: LINE1-full (parent)
chain: UACGUAGGUGGUUUUCCCCUGAUAGUGCUAAGGGGGCCUGGAAGUUUGGACUGGGCAGAGCUCAACACAGCGUGGCAAAGUGGCUGUGGCUAGACUGCCUCUCUGGAUUCCUCGUCACUCAGCAGGGCAUCUCUGAGAGAAAUGCC

Read counts are not given, so values of variants with three or more changes are uncertain.

Variants of B1 are the subject of this series. The series is described as follows: self-cleavage, relative activity (ratio to wild type); higher = more cleavage; in vitro, sequencing; the parent is a self-cleaving ribozyme.
On to UACGUAGGUGGUUUACCCCUGAUUGUGCUAAAGGGGCCUGGAAGUUUGGACUGGGCAGAGCUCGACACAGCGUGGCAAAGUGGCUGUGGCUAGACUGCCUCUCUGGAUUCCUCGUCACUCAGCAGGGCAUCUCUGAGAGAAAUGCC, for which the self-cleavage was 0.34. The same measure for UACGUAGGUGGUUGUCCCCUGAUAGUGCUAAGGGGGCCUGGAAGUUUGGACUGGGCAGAGCUCAACUCAGCGUGGCAAAGUGGCUGUGGCUAGACUGCCUCUCCGGAUUCCUCGUCACUCAGCAGGGCAUCUCUGAGAGAAAUGCC: 0.28; for UACGUAGGUGGUUUACCCCUGGUAGUGCUAAGGGGGCCUGGAAGUUUGGACCGGGCAGAGCACAACCCAGCGUGGCAAAGUGGCUGUGGCUAGACUGCCUCUCUGGAUUCCUCGUCACUCAGCAGGGCAUCUCUGAGAGAAAUGCC: 0.1; for UACGUAGGUGGUUCUCCCCUGAUAGUGCUAAGGGGGCCUGGAAGUUUGGACUGGGCAGAGCUCAACACAGCGUGGCAAAGUGGCUGUGGCUAGACUGCCCCUCUGGAUUCCUCGUCACUCAGCAGGGCAUCUCUGAGAGGAAUGCC: 1.17. As for UACGUAGGUGGUUGUCCCCUGAUAGUGCUAAGGGGGCCUGGAAGUAUGGACUGGGCAGAGCUCAACACAGCGUGGCAAAGUGGCUGUGGCUAGACUGCCUCCCUGGAUUCCUCGUCACUCAGCAGGGCAUCUCUGAGAGAAAUGCC, the self-cleavage turned out to be 0.68. UACGUAGGUGGUUCUCCCCUGAUAGUGCUAAGGGGGCCUGGAAGUUUGGACUGGGCAGAGCUCAACACAGCGUGGCAAAGUGGCUGUGGCUAGACUGCCUCUCUGGAUUCCUCGCCACUCAGCAGGGCAUCUCCGAGAGAAAUGCC: the self-cleavage came out at 0.97. For the variant UACGUAGGUGGUUCUCCCCUGAUAGUGCUAAGGGGGCCUGGAAGUUUGGACUGGGCAGAGCUCAACACAGCGUGGCAAAGUGGCUGUGGCUAGACUGCCUCUCUGGAUUCCCCGUCACUCAGCAGGGCAUCCCUGAGAGAAAUGCC, the self-cleavage was determined as 0.6. As to UACGUAGGUGGUUGUCCCCUGAUAGUGCUAAGGGGGCCUGGAAGUUUGGACUGGGCAGAGCUCAACACAGCGUGGCAAAGUGGCUGUGGCUAGACUGCCUCUCUGGACUCCUCGUCACUCAGCAGGGCAUCUCUAAGAGAAAUGCC, the self-cleavage came to 0.65. As for UACGUAGGUGGUUUACCCCUGGUAGUGCUAAGGGGGCCUGGAAGUUUGGACUGGGCAGAGCUCAACACAGCGUGGCAAAGUGGCUGUGGCUAGACUGCCUCUCUGGAUUCCACGUCACUCAGCUGGGCAUCUCUGAGAGAAAUGCC, the self-cleavage turned out to be 1.58. As to UACGUAGGUGGUUGUCCCCUGAUGGUGCUAAGGGGGCCUGGAAGUUUGGACUGGGCAGAGCUCAACACUGCGUGGCAAAGUGGCUGUGGCUAGACUGCCUCUCUGGAUUCCUCGUCACUCAGCAGGGCAUCUCUGAGAGAAAUGCC, the self-cleavage turned out to be 0. The same measure for UACGUAGGUGGUUCUCCCCUGAUAGUGCUAAGGGGGCCUGGAAGUUUGGACUGGGCAGAGCUCAACACAGCGUGGCAAAGUGGCUGUGGCUAGACUGCCUCUCUGGAUCCCUCGUCACUCAGCAGGGCAUCUCUGAGAGGAAUGCC: 0.36.

With UACGUAGGUGGUUGCCCCCUGAUAGUGCUAAGGGGGCCUGGAAGUUUGGACUGGGCAGAGCUCAACACAGCGUGGCAAAGUGGCUGUGGCUAGACUGCCUCUCUGGAUUCCUCGUCACUCAGCAGGGCAACUCUGAGAGAAAUGCC, the self-cleavage amounted to 1.72. As to UACGUAGGUGGUUGUCCCCUGAUAGUGCUUUGGGGGCCUGGAAGUAUGGACUGGGCAGAGCUCAGCACAGCGUGGCAAAGUGGCUGUGGCUAGACUGCCUCUCUGGAUUCCUCGUCACUCAGCAGGGCAUCUCUGAGAGAAACGCC, the self-cleavage stood at 0.1. As for UACGUAGGUGGUUCUCCCCUGAUAGUGCUAAGGGGGCCUGGAAGUUUGGACUGGGCAGAGCUCAACACAGCGUGGCAAAGUGGCUGUGGCUAGACUGCCUCUCUGGAUUCCCCGUCACUCAGCAGGGCAUCUCCGAGAGAAAUGCC, the self-cleavage was determined as 1.31.

As for UACGUAGGUGGUUGUCCCCUGUUAGUGCUAAGGGGGCCUGGAAGUUUGGACUGGGCUGUGCUCAACACAGCGUGGCAAAGUGGCCGUGGCUAGACUGCCUCUCUGGAUUCCUCGUCACUCAGCUGGGCAUCUCUGAGAGAAAUGCC, the self-cleavage was 0.23. On to UACGUAGGUGGUUGUCCCCUGAUAGUGCUAAGGGGGCCUGGAAGUUUGGACUGGGCAGAGCUCAACACAGCGUGGCAGAGUGGCUGUGGCUAGACUGCCUCUCUGGGUUCCUCGUCACUCAGCAGGGCAUCUCUGAGAGAAAUGCC, for which the self-cleavage came to 1.09. For the variant UACGUAGGUGGUUGUCCCCUGAUAGUGCUGAGGGGGCCUGGAAGUUUGGACUGGGCAGAGCUCUACACAGCGUGGCAAAGUGGCUGUGGCUAGACUGCUUCUCUGGAUUCCUCGUCACUCAGCAGGGCAUCUCUGAGAGAAAUGCU, the self-cleavage is 0.39. The same measure for UACGUAGGUGGUUGACCCCUGAUAGUGCUAAGGGGACCUGGAAGUUUGGACAGGGCAGUGCUCAACACAGCGUGGCAAAGUGGCUGUGGCUAGACUGCCUCUCUGGAUUCCUCGUCACUCAGCAGGGCAUCUCUGAGAGAAAUGCC: 0.18; for UACGUAGGUGGUUGCCCCCUGAUAGUGCUAAGGGGGCCCGGAAGUUUGGACUGGGCAGAGCUCAACACAGCGUGGCAAAGUGGCUGUGGCUAGACUGCCUCUCUGGAUUCCUCGUCACUCAGCAGGGCAUCUCGGAGAGAAAUGCC: 0.37.

For UACGUAGGUGGUUCUCCCCUGAUAGUGCUAAGGGGGCCUGGAAGUUUGGACUGGGCAGAGCUCAACACAGCGUGGCAAAGUGGCUGUGGCUAGACUGCCUCUCUGGAUUCCCCGCCACUCAGCAGGGCAUCUCUGAGAGAAAUGCC, the self-cleavage is 1.58.
